Test results: PubChem BioAssay AID651820 (National Center for Advancing Translational Sciences (NCATS), 2012)
Hit rate of the full screen: of about 340,000 compounds, about 12,000 (3.5%) were called active. The shares of active, inactive and inconclusive entries below differ from those in the screen. Calls follow the shape of the dose curve; as a rule, active = well fitted inhibition curve with a large enough effect; inconclusive = small, poorly fitted or top-dose-only effect, or another doubt; inactive = no such curve, though single readings can be large or run the other way. Potencies of inconclusive entries are left out as doubtful fits.

Assay: qHTS Assay for Inhibitors of Hepatitis C Virus (HCV)
Details: Huh7.5.1 HCVcc-Cre (HCVcc is cell-culture hepatitis C virus) infection, luciferase reporter, 44 h; activity change, negative = inhibition: at 41.8 µM (top of the series)
How it was run: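 After 44 h co-culture of compound, cells and HCVcc-Cre (~0.5 moi), substrate is added for 15 min at room temperature and luciferase measured over 15 sec. Cells were seeded at 1,000/well and pre-cultured 4 h.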
% is scaled to controls: 0 for no effect and ±100 for the full control effect; potency is read from the fitted curve at half-maximal effect; tags tell the direction and shape of the fitted curve.

Compound	Potency	activity change, negative = inhibition
CC(C)(C)c1nc(NC(=O)Nc2ccccc2)sc1Br	inconclusive [inhibitor, single point]	–
Cc1cc(C(=O)NCCN2C(=O)S/C(=C\c3cccs3)C2=O)ccc1[N+](=O)[O-]	inconclusive [inhibitor, single point]	–
CCN(C[C@H]1N[C@@](Cc2ccccc2)(C(=O)OC)[C@H]2C(=O)N(Cc3ccccc3)C(=O)[C@@H]12)S(=O)(=O)c1ccc(F)cc1	inconclusive [inhibitor, partial curve]	–
Nc1ccc2c(c1)C(=O)N(c1cccc3ccccc13)C2=O	–	inactive: -5.96%
CC(C)(C)NC(=O)CSc1nc(-c2ccc(F)cc2)cs1	inconclusive [inhibitor, single point]	–
O=C(NCc1ccccc1)C(c1ccc(O)cc1)N(C(=O)Cn1nnc(-c2cccs2)n1)c1ccc2c(c1)OCCO2 (centres undefined)	inconclusive [inhibitor, single point]	–
CN1CCc2c(c3c(n2C)CCN(C)C3c2ccc(F)cc2)C1c1ccc(F)cc1 (centres undefined)	–	inactive: -0.137%
Cc1nn(-c2ccccc2)nc1C(=O)OCC(=O)N1CCC(C)CC1	–	inactive: -15.8%
Cc1ccc(OC(C)C(=O)Nc2ccc3c(c2)n(C)c(=O)n3C)c(C)c1 (centres undefined)	inconclusive [inhibitor, single point]	–
CN(C)S(=O)(=O)c1ccc(Cl)c(NC(=O)COC(=O)c2ccc(O)cc2)c1	–	inactive: 3.62%
N/C(=N\S(=O)(=O)c1cc(C(F)(F)F)cc(C(F)(F)F)c1)c1cccs1	inconclusive [inhibitor, single point]	–
CCc1ccc(NC(=O)C(=O)N/N=C(\C)CC(=O)Nc2ccc(OC)cc2)cc1	–	inactive: 1.15%
O=C(c1ccco1)N1CCN(C(=S)NCc2ccc(F)cc2)CC1	–	inactive: 18.4%
COc1ccc(OC)c(-c2csc(NC(=O)C3=NN(c4ccccc4)C(=O)CC3)n2)c1	inconclusive [inhibitor, partial curve]	–
COc1cc(OC)cc(C(=O)Nc2ccccc2C(=O)NC2CC2)c1	inconclusive [inhibitor, full curve, poor fit]	–
Cc1cccc(CN2CCN(Cc3cccc(-n4cccn4)c3)CC2CCO)n1 (centres undefined)	–	inactive: -4.37%
COc1ccccc1C1Nc2cccc3cccc(c23)N1	–	inactive: 1.01%
Cc1cccc(CN2C(=O)N/C(=C/c3cc(C)n(-c4ccccn4)c3C)C2=O)c1	active: 1.78 µM	–
CC(C)OC(=O)c1cc2c(ccn2C)n1CC(=O)N1CCC(Cc2ccccc2)CC1	inconclusive [inhibitor, partial curve]	–
O=C(OCc1ccc(Br)cc1)c1cccc(S(=O)(=O)N2CCCC2)c1	inconclusive [inhibitor, single point]	–
CC(=O)Nc1ccc(NC(=O)C(C)OC(=O)CNS(=O)(=O)c2ccc(Br)cc2Cl)cc1 (centres undefined)	–	inactive: -0.608%
O=C(c1ccc(Oc2ccc([N+](=O)[O-])cc2)cc1)N1CCCCCC1	active: 25.1 µM	–
Cc1cc(=O)oc2c(N)c(O)ccc12	–	inactive: 0.279%
O=C(Nc1nc(-c2ccc(S(=O)(=O)N3CCOCC3)cc2)cs1)c1ccccc1	active: 7.94 µM	–
O=C(NC(=S)N1CCN(c2nc(-c3ccccc3)cs2)CC1)c1cncc(Br)c1	–	inactive: -8.96%

Compound	Potency	activity change, negative = inhibition
O=C(CN1CC(c2ccccc2)CC1=O)N/N=C/c1cc(Br)ccc1O (centres undefined)	inconclusive [inhibitor, single point]	–
O=[N+]([O-])c1ccccc1-c1cc(-c2cc(Cl)ccc2O)n[nH]1	inconclusive [inhibitor, single point]	–
CC(=O)N(/N=C1\Sc2ccccc2C1=O)c1ccccc1C	inconclusive [inhibitor, full curve]	–
CCOc1cc(C(=S)N2CCOCC2)ccc1OS(=O)(=O)c1ccc(NC(C)=O)cc1	active: 7.08 µM	–
COc1ccc(-c2csc(NC(C)c3nc4cc(Cl)c(N5CCCCC5)cc4n3CCOCCO)n2)cc1 (centres undefined)	inconclusive [inhibitor, single point]	–
CN(C)S(=O)(=O)c1cccc(NC(=O)COc2ccc3ccccc3c2)c1	active: 22.4 µM	–
CC(=O)c1ccc(-c2c(C)cc3oc(=O)cc(-c4ccccc4)c3c2C)cc1	inconclusive [inhibitor, partial curve]	–
C[C@@H](CSc1ccc(Br)cc1)CN1CC[C@H](NC(=O)OCc2ccccc2)CCC1=O	active: 4.47 µM	–
CCOC(=O)c1ccc(S(=O)(=O)N2CCN(C(=O)c3cc4ccccc4o3)CC2)cc1	–	inactive: 4.74%
O=[N+]([O-])c1ccc(NCCc2ccccc2)c(Br)c1	inconclusive [inhibitor, single point]	–
CCN(CC)S(=O)(=O)c1ccc(Cl)c(C(=O)N2CCc3ccccc32)c1	inconclusive [inhibitor, partial curve, poor fit]	–
CC(=O)Nc1ccc(Nc2c3ccccc3nc3ccccc23)cc1	active: 7.08 µM	–
COc1cccc(/C=C/C(=O)Nc2ccccc2N2CCOCC2)c1	inconclusive [inhibitor, full curve]	–
Cc1cc(C)n2nc(-c3ccsc3-n3c(C)ccc3C)cc2n1	inconclusive [inhibitor, single point]	–
CCCCn1c(SCC(=O)Nc2oc(C)c3c(C)n[nH]c(=O)c23)nc2cc(S(N)(=O)=O)ccc21	inconclusive [inhibitor, full curve, poor fit]	–
OCCCN=c1cc(-c2ccccc2)oc2ccc(Cl)cc12	inconclusive [inhibitor, single point]	–
COc1ccc(C(C)C)cc1S(=O)(=O)n1ccnc1C	–	inactive: 14.7%
C/C(=N\Nc1nc2ccccc2[nH]1)c1ccc(Cl)s1	inconclusive [inhibitor, single point]	–
C/C(=N\NC(=O)CC#N)c1ccc(Oc2ccccc2)cc1	inconclusive [inhibitor, single point]	–
CCCN(C(=O)COC(=O)c1[nH]c(C)c(C(=O)OC)c1C)c1c(N)n(Cc2ccccc2)c(=O)[nH]c1=O	inconclusive [inhibitor, full curve, poor fit]	–
N#CC1=C(N2CCOCC2)/C(=C\c2ccccc2)CC1	inconclusive [inhibitor, single point]	–
N[C@@H](Cc1cc(I)c(O)c(I)c1)C(=O)O	–	inactive: 1.93% [at 8.37 µM]
S=C1NC2(CCCCC2)Cc2ccccc21	–	inactive: 1.63%
O=C(CSc1nc2c(c(=O)[nH]1)CCC2)Nc1cccc(Cl)c1	–	inactive: 6.84%
COc1cc(C(=O)NCc2ccc(C)cc2)ccc1OC(F)F	–	inactive: 19.6%

Compound	Potency	activity change, negative = inhibition
Cc1ccc(S(=O)(=O)Cc2cc(-c3ccc(Cl)cc3)no2)cc1	inconclusive [inhibitor, single point]	–
O=C1C=CC2C3C(=O)N(c4ccccc4)C(=O)C3C1N2Cc1ccccc1 (centres undefined)	inconclusive [inhibitor, full curve]	–
COCCn1c(=NC(=O)/C=C/c2cccs2)sc2cc(NC(C)=O)ccc21	–	inactive: -43.8%
C=CCn1c(-c2ccccc2OC)n[nH]c1=S	–	inactive: 3.87%
COC(=O)CSc1nc(N)c(C#N)c(-c2ccc(O)cc2)c1C#N	–	inactive: 0.988%
CC(=O)Oc1ccc(C(=O)O)cc1OC(C)=O	–	inactive: 8.04%
COC(=O)c1ccc(CO/N=C/c2ccccc2OC)cc1	inconclusive [inhibitor, single point]	–
CC(=O)NC(NC(=S)Nc1ccc(N=Nc2ccccc2)cc1)C(Cl)(Cl)Cl (centres undefined)	active: 7.08 µM	–
O=S(=O)(c1ccc(C2CCCCC2)cc1)N1CCN(c2ncccn2)CC1	–	inactive: 7.68%
CC(C)(C)c1ccc(OCC(=O)NNC(=S)NC(=O)c2ccco2)c(Br)c1	inconclusive [inhibitor, full curve]	–
Brc1ccc(-c2cn3c(n2)SCC3)cc1	inconclusive [inhibitor, single point]	–
O=C(O)CCn1c(SCCOc2ccccc2)nc2ccccc21	–	inactive: 17.9%
COc1ccccc1N(CC(O)COc1c(C)cc(C)cc1C)S(=O)(=O)c1ccccc1 (centres undefined)	inconclusive [inhibitor, single point]	–
Cc1c(Cc2ccccc2)sc(/N=C/c2c(O)ccc3ccccc23)c1C(N)=O	inconclusive [inhibitor, single point]	–
CCCNC(=O)c1ccccc1NC(=O)c1ccccc1SC	–	inactive: -3.82%
Cc1ccccc1CNC(=O)CCn1nc(C)c2c(C)n(-c3ccccc3)nc2c1=O	–	inactive: -3.67%
CCCN1CCN(C(=O)c2ccc(F)c(S(=O)(=O)N3CCOCC3)c2)CC1	–	inactive: -9.27%
Cc1cccc(Nc2ccc(S(=O)(=O)N3CCOCC3)cc2[N+](=O)[O-])c1	inconclusive [inhibitor, single point]	–
Nc1ccccc1-c1ccc(Cl)cc1	inconclusive [inhibitor, single point]	–
COc1ccc(-n2c(C)cc(/C=C(\C#N)C(=O)NCc3ccco3)c2C)cc1	inconclusive [inhibitor, single point]	–
CCN1CCCC1CNS(=O)(=O)c1ccc(Cl)c(C(F)(F)F)c1 (centres undefined)	inconclusive [inhibitor, partial curve]	–
CCOC(=O)c1c(C)n(Cc2ccc3c(c2)OCO3)c2ccc(O)cc12	inconclusive [inhibitor, single point]	–
COc1ccc(OC)c(S(=O)(=O)N2CCc3ccccc32)c1	–	inactive: 1.62%
CCOc1ccc(/C=C/C(O)=C2/C(=O)N(C)C3(C)CC2c2ccccc2O3)cc1OC (centres undefined)	inconclusive [inhibitor, partial curve]	–
